In all, about 360,000 compounds went through this assay and about 16,000 (4.4%) were called active. The shares of active, inactive and inconclusive entries below differ from those in the screen. The call rests on the fitted dose curve; in most records, active means well fitted inhibition curve with a large enough effect; inconclusive means small, poorly fitted or top-dose-only effect; inactive means no such curve, though single readings can be large or run the other way. Where the call is inconclusive, the potency comes from a doubtful curve fit.
molecular target: Bromodomain adjacent to zinc finger domain protein 2B (Homo sapiens) (UniProt Q9UIF8); test: qHTS Assay for Inhibitors of BAZ2B; conditions: AlphaScreen BAZ2B-H3K14Ac peptide displacement; activity change, negative = inhibition: at 114 µM (top of the series) unless noted; further: nearly all actives have a fitted effect of over 60% in size
Method in brief: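 Compounds, titrated to a top concentration of 110 uM, were incubated 30 min at room temperature with preformed BAZ2B/acetyl-K14 H3 peptide complex (50 nM each). Proximity signal was measured by AlphaScreen after 20 min with beads.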
On the % scale 0 is the no-effect control and ±100 the full control effect; potency means the concentration at half of the fitted maximal effect; tags describe the fitted curve by direction and shape.

Sequence of UniProt Q9UIF8 (Q9UIF8 whole entry, looked up, the tested form may be a part): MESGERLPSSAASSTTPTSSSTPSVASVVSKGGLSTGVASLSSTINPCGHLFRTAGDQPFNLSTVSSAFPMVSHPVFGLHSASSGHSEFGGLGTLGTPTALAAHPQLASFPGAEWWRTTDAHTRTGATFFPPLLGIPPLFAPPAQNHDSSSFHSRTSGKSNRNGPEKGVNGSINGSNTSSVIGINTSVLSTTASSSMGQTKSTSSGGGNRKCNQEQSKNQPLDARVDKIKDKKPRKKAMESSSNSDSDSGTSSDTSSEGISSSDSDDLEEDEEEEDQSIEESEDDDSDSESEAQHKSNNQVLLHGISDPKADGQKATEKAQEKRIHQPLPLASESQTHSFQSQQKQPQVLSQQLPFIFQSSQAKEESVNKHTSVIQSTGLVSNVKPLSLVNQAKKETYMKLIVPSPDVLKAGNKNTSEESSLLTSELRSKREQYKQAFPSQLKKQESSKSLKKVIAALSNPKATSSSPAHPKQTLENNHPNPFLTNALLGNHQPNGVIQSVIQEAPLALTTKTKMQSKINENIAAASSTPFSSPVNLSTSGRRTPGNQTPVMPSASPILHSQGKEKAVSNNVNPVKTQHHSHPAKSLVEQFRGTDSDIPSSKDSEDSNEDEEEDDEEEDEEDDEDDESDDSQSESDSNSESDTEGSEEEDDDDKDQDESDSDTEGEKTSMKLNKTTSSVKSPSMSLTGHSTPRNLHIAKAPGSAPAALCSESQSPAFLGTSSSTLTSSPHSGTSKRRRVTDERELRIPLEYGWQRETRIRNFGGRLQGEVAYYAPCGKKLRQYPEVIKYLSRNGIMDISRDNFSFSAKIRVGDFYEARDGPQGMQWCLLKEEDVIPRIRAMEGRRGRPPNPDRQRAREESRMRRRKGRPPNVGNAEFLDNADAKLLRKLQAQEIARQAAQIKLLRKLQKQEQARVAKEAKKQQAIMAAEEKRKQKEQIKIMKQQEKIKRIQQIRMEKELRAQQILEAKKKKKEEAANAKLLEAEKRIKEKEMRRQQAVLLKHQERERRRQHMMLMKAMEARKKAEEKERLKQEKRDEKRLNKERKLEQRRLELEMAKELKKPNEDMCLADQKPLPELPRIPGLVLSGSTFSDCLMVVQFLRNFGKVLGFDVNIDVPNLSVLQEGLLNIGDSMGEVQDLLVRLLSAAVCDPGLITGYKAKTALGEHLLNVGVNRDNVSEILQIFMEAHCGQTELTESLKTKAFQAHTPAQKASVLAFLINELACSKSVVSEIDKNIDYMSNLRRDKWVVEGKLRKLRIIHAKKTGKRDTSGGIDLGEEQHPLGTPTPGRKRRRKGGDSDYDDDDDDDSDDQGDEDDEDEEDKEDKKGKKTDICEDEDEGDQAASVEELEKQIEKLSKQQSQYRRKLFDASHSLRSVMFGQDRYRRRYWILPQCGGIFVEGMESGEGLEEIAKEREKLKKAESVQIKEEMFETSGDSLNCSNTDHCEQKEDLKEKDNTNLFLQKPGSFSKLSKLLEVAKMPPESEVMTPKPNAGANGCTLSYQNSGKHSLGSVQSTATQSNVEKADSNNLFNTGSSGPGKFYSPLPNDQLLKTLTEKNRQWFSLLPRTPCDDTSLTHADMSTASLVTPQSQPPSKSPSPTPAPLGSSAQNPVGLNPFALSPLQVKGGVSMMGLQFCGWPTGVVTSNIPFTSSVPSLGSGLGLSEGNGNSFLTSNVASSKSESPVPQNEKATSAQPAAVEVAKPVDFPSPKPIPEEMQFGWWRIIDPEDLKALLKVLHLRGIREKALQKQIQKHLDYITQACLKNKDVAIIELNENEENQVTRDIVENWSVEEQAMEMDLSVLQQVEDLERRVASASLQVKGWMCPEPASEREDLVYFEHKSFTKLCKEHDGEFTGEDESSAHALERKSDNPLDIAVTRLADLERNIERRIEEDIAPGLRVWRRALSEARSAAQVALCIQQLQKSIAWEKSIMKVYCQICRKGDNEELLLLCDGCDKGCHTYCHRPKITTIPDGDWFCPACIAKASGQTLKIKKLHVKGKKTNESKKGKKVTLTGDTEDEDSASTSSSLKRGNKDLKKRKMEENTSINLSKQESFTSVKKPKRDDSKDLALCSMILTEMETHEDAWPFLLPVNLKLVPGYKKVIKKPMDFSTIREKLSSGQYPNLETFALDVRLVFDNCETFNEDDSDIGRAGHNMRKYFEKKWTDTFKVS

Compound	Potency	activity change, negative = inhibition
COc1cc(C(=O)Nc2nnc(C(F)(F)F)s2)c([N+](=O)[O-])cc1OC	inconclusive: 79.4 µM [inhibitor, single point]	
O=[N+]([O-])c1ccccc1Sc1nccn1Cc1ccccc1	inconclusive: 50.1 µM [inhibitor, partial curve]	
Cc1ccc(N2CCN(C(=O)c3c(C)oc4nc(C)nc(N5CCCC5)c34)CC2)c(C)c1		inactive: 1.69% [at 57.1 µM]
CC1(C)CC(N2CCCC2)=CC(=[N+]2CCCC2)C1	active: 79.4 µM	
COc1cc(NS(=O)(=O)c2ccc(NC(=O)c3ccc(C(C)=O)cc3)cc2)nc(OC)n1		inactive: -3.94%
COc1ccc(Nc2nc(NCc3ccco3)nc(N/N=C/c3ccccc3F)n2)cc1	inconclusive: 35.5 µM [inhibitor, partial curve]	
O=C(Nc1ccccn1)c1cccc(S(=O)(=O)N2CCCC2)c1		inactive: -9.4%
Cc1ccc(NC(=O)Nc2ccc3nc(N4CCN(C)CC4)cc(C)c3c2)cc1C		inactive: -1.37% [at 57.1 µM]
Oc1c(N=NC(=S)Nc2ccccc2F)c2ccccc2n1Cc1ccccc1Cl	inconclusive: 8.91 µM [inhibitor, full curve]	
CC(C)CCOP(=O)(c1ccc(N(C)C)cc1)C(Nc1ccccc1)c1ccc(N(C)C)cc1 (centres undefined)	inconclusive: 44.7 µM [inhibitor, partial curve]	
CCOC(=O)N1CCN(S(=O)(=O)c2ccc(C(=O)N(CCN(C)C)c3nc4c(C)cccc4s3)cc2)CC1	inconclusive: 6.31 µM [inhibitor, partial curve, poor fit]	
O=C(c1ccccc1Cl)N1CCN(CCc2ccccn2)CC1	inconclusive: 89.1 µM [inhibitor, single point]	
COc1ccc(N2CCN(C(=O)COC(=O)c3oc4ccccc4c3C)CC2)cc1	inconclusive: 35.5 µM [inhibitor, full curve]	
CCOc1ccc(Cc2n[nH]c(=S)n2Cc2ccccc2)cc1		inactive: -37.7%
O=C(c1cc(-c2ccco2)on1)N1CCN(c2ccccc2)CC1	inconclusive: 89.1 µM [inhibitor, single point]	
NC(=S)N=Nc1c(O)n(Cc2ccc(F)cc2)c2ccccc12		inactive: 11%
COC(=O)c1cc(OC)c(OC)cc1NC(=O)c1c(-c2ccccc2)noc1C		inactive: -34.8%
CCc1nnc(NS(=O)(=O)c2ccc(NC(=S)NC(=O)/C=C/c3ccc(C(C)C)cc3)cc2)s1	active: 50.1 µM	
CCCCCCn1c(SCC(C)C)nc2c1c(=O)[nH]c(=O)n2C		inactive: -1.56%
CN(C)c1ccc(S(=O)(=O)NCC(=O)NCc2ccccc2)cc1[N+](=O)[O-]	inconclusive: 50.1 µM [inhibitor, partial curve]	
COC(=O)C(Cc1c[nH]c2ccccc12)NC(=O)C(=O)c1c[nH]c2ccccc12 (centres undefined)	inconclusive: 39.8 µM [inhibitor, partial curve]	
Cc1n[nH]c(C)c1S(=O)(=O)N1CCC(C(=O)Nc2cccc(F)c2)CC1	inconclusive: 89.1 µM [inhibitor, single point]	

Compound	Potency	activity change, negative = inhibition
COc1ccc2cc3cc(C(=O)NCCc4ccccc4)sc3nc2c1Cl		inactive: -2.01%
O=C(COc1cc2oc(=O)cc(-c3ccccc3)c2cc1Cl)NC(Cc1c[nH]c2ccc(O)cc12)C(=O)O (centres undefined)	inconclusive: 79.4 µM [inhibitor, single point]	
CCOC(=O)CNC(=S)n1ncnc1N	inconclusive: 79.4 µM [inhibitor, single point]	
CC1CCN(S(=O)(=O)c2cc([N+](=O)[O-])ccc2Cl)CC1	inconclusive: 39.8 µM [inhibitor, partial curve]	
C=CCn1c(-c2cnn(-c3ccccc3)c2N)n[nH]c1=S		inactive: -20.8%
CCOC(=O)C(NCc1ccc(F)cc1)(NC(=O)c1ccccc1)C(F)(F)F (centres undefined)		inactive: 74.6%
Cc1ccccc1C(=O)c1c[nH]c(C(=O)N2CCN(c3ccccc3F)CC2)c1	inconclusive: 79.4 µM [inhibitor, partial curve]	
O=C(O)CCn1c(CO)nc2ccccc21	active: 56.2 µM	
O=c1cc(N2CCCCC2)c(-c2ccccc2)nn1Cc1ccc(F)cc1	inconclusive: 79.4 µM [inhibitor, partial curve]	
Cc1cc(C(=O)CSc2cccc[n+]2[O-])c(C)n1-c1ccc(OC(F)F)cc1	inconclusive: 56.2 µM [inhibitor, partial curve]	
Cc1ccc(C(=O)CC(SCC(=O)O)c2ccc([N+](=O)[O-])cc2)cc1 (centres undefined)	inconclusive: 35.5 µM [inhibitor, partial curve, poor fit]	
Cc1cc2[nH]c(=O)c(=O)[nH]c2cc1S(=O)(=O)N1CCC(C)CC1	inconclusive: 63.1 µM [inhibitor, partial curve, poor fit]	
COC(=O)c1ccc([C@H]2Nc3ccc(S(=O)(=O)Nc4ccc(C)cc4)cc3[C@H]3C=CC[C@H]32)cc1	inconclusive: 50.1 µM [inhibitor, partial curve]	
Oc1ccc(N2Cc3ccccc3C2)cc1	inconclusive: 50.1 µM [inhibitor, partial curve]	
COc1ccc2ccccc2c1C1CC(=O)N2CN(C3CCCCC3)CSC2=C1C#N (centres undefined)	inconclusive: 89.1 µM [inhibitor, single point]	
COc1cc(C)c(CN2CCC(Cc3ccccc3)CC2)cc1C	active: 56.2 µM	
CCOC(=O)C1(Cc2ccccc2)CCN(Cc2cccn2-c2cccnc2)CC1	inconclusive: 22.4 µM [inhibitor, partial curve]	
CN1CCN(C(=O)/C=C/c2ccc3c(c2)OCO3)CC1	inconclusive: 89.1 µM [inhibitor, single point]	
Cc1cc(C)n(CC(O)Cn2c3ccc(Cl)cc3c3cc(Cl)ccc32)c(=O)n1 (centres undefined)		inactive: -23.1%
CCc1nc(C)cn1S(=O)(=O)c1cc([N+](=O)[O-])ccc1Cl	inconclusive: 79.4 µM [inhibitor, single point]	
O=C(Nc1ccc(F)cc1)C1=CC(=O)N2CCN=C2S1	inconclusive: 79.4 µM [inhibitor, single point]	
Cc1nc2ccccc2c(=O)n1/N=C/c1ccc2ccccc2c1O	inconclusive: 31.6 µM [inhibitor, full curve, poor fit]	

— PubChem BioAssay AID504333 (National Center for Advancing Translational Sciences (NCATS), 2011)
